Results taken from patent publication US4251524A (priority 1976, dated 1981).

Legend:
Assay in all cases: microbe, parasite or virus in culture
E. coli A 261 = settings: Escherichia coli, A261, 24 h, read-out: minimum inhibitory concentration (MIC)
Description: (§1) In addition, the compound 7-methoxy-7-[D-α-[(2-oxo-3-furfurylideneamino-imidazolidin-1-yl)-carbonylamino]-phenylacetamido]-3-acetoxymethyl-ceph-3-em-4-carboxylic acid was compared with the commercial product Cefazolin in the agar dilution test using OXOID DST agar as the growth medium. In this comparison, the substances were diluted in liquid agar in two steps; after the agar had solidified, the bacteria were applied to the agar surface, using a multiple inoculation apparatus and the plates were incubated at 37° C. for 24 hours. After 24 hours, the concentration at which no colony formation took place was read as the minimum inhibitory concentration (MIC).

[1] = tested on: Klebsiella pneumoniae 1852; settings: Klebsiella pneumoniae, 1852, 24 h, read-out: minimum inhibitory concentration (MIC)
Description: as §1

E. coli F 14 = settings: Escherichia coli, F14, 24 h, read-out: minimum inhibitory concentration (MIC)
Description: as §1

[2] = tested on: Klebsiella pneumoniae 57 US; settings: 24 h, read-out: minimum inhibitory concentration (MIC)
Description: as §1

Proteus vulgaris 1017 = settings: Proteus vulgaris, 1017, 24 h, read-out: minimum inhibitory concentration (MIC)
Description: as §1

E. coli T 7 = settings: Escherichia coli, T7, 24 h, read-out: minimum inhibitory concentration (MIC)
Description: as §1

Compound	MIC (E. coli A 261)	MIC [1]	MIC (E. coli F 14)	MIC [2]	MIC (Proteus vulgaris 1017)	MIC (E. coli T 7)
Cc1nnc(SCC2=C(C(=O)O)N3C(=O)[C@@H](NC(=O)Cn4cnnn4)[C@H]3SC2)s1 [Cefazolin, reference compound]	4 µg/mL (≈ 8.8 µM)	16 µg/mL (≈ 35.2 µM)	16 µg/mL (≈ 35.2 µM)	4 µg/mL (≈ 8.8 µM)	> 256 µg/mL	16 µg/mL (≈ 35.2 µM)
COC1(NC(=O)[C@H](NC(=O)N2CCN(N=Cc3ccco3)C2=O)c2ccccc2)C(=O)N2C(C(=O)O)=C(COC(C)=O)CS[C@@H]21 (stereo partly drawn) [Example 36.5, 7-methoxy-7-[D-α-[(2-oxo-3-furfurylideneamino-imidazolidin-1-yl)-carbonylamino]-phenylacetamido]-3-acetoxymethyl-ceph-3-em-4-carboxylic acid]	≤ 0.25 µg/mL	1 µg/mL (≈ 1.56 µM)	4 µg/mL (≈ 6.24 µM)	1 µg/mL (≈ 1.56 µM)	16 µg/mL (≈ 25 µM)	≤ 0.25 µg/mL

In brackets after ≈: the same amount, converted by molar mass.
